Source: the supplement of paper PMC12632987
In all, about 2,300 sequences were measured (“median log2 fold change of GCK-ALFA target abundance (FLAG IP / Myc IP barcode read proportion)”: median about 0.095, lowest 2% from about -0.47 on). This is one part of the list.

B1: LC3A_free_39_2244 (protein)
chain: SAEELEKAKEEILALAAEEGEEALELAKKILEILEGNVEATKKLLELLKQIKADGGDILEVLKEAVEVAEELEKEGKSQEEINEAIVETVQDHLNLLPLD
B2: LC3A_28_1329 (protein)
chain: SHIEEELAAAEAAAEEALARGEEALIEVKISGSTTLEEAEELMERLEEIVRRYAPEIKVSVVIDLSSSVSQEVIDLIAERAEEIEERYPNVTVIIALDEE
B3: LC3A_28_1148 (protein)
chain: SAMVEEAKAQIDADAEKDKNEKEIYLNVTFKKGITVEEAEEIMDHVEEVVEKNKDKEKIYIVIDFEEPISQEVLDLILKKADEIEKKFPNVDVIIALHED
B4: LC3A_147_467 (protein)
chain: YRTIVDIDILVKDAEEEVIERIKAIAEELKEKGYKVELEIESEKLPDGSTYIRARITIETETEEEAIEAANLVIDRLDELEEELKDEILGSLISVEIEKK
B5: LC3A_28_707 (protein)
chain: NALEASIAAALAEAKAAAAAGESTVIEIDIPGDATQEDIDKVIKALEEIAEILKDLPSTSIIINVDGKVKQEHIDKLADAAEEIEEKYPNVTVIIALDEN
B6: LC3A_free_8_2472 (protein)
chain: KIKETVKKITEKLDELAEKTRKKMKELGVSELDINELELEIGAAISDIISNSDKPIEELKKIAEEDLKEILELAKELGEEIAKLVEETAKEIEEILEKAL
B7: LC3A_free_37_2174 (protein)
chain: KAVIVVDIVPREELEAARKRAAARTEANRDDGDIRVREIVVPEDLEEAERVTREQLRAVLAEIRAEDPNAEVDVIIALDDLDTANVVADTADELLAEERA
B8: LC3A_28_957 (protein)
chain: SELEKELEKAIAEAKEAAKKGVPAVITINVPGTADEEDIEKVIEALEEIAEILKDVEGAAIIINVDGKVAQEHIDKLAEKAEEIEKKYPKITVIIALDEE

molecular target: MAP1LC3A, Q9H492; experiment: median log2 fold change of GCK-ALFA target abundance (FLAG IP / Myc IP barcode read proportion) (log2 ratio); each designed protein is fused to an ALFA-tag nanobody in HEK293 cells to bring the named protein to FLAG-tagged glucokinase (GCK); Myc marks an untargeted standard; higher = target protein stabilised (more abundant); conditions: target protein: 3xFLAG-MCP-GCK-ALFA reporter; HEK293 landing pad (RPLP)
How it was run: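 The readout is target abundance, the per-binder median log2 ratio of FLAG to Myc barcode read proportions. It came from HEK293 landing-pad cells carrying a recombined ALFA-nanobody-fused binder library, induced with 2 μg mL^−1 doxycycline and transfected with a plasmid for a FLAG-tagged target and a Myc-tagged standard. After 48 h, lysates were immunoprecipitated with anti-FLAG and anti-Myc, and circular RNA barcodes were reverse transcribed, amplified and sequenced. Each barcode needed a proportion of at least 10^−7 in both replicates and each binder at least 3 barcodes per replicate, a pseudocount of 10^−6 was added, and the replicates were pooled.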

Row | Binder | median log2 fold change
1 | B1 | 0.315
2 | B2 | 0.117
3 | B3 | 0.0494
4 | B4 | -0.47
5 | B5 | 0.185
6 | B6 | 0.168
7 | B7 | 0.142
8 | B8 | 0.162
